# Results taken from PubChem BioAssay AID2451 (National Center for Advancing Translational Sciences (NCATS), 2010).
# The whole screen tested about 290,000 compounds, of which about 2,100 (0.72%) were called active. This list was built around the results that the source calls inconclusive (neither active nor inactive); the mix of calls is not that of the screen. The call rests on the fitted dose curve; in most records, active means well fitted inhibition curve with a large enough effect; inconclusive means small, poorly fitted or top-dose-only effect, or effect the other way; inactive means flat fitted curve, though single readings scatter. A potency beside an inconclusive call is a rough fit, not a confirmed value.
# Target: Fructose-bisphosphate aldolase (Giardia intestinalis (strain ATCC 50803 / WB clone C6)) (UniProt A8B2U2)
# Sequence of UniProt A8B2U2 (A8B2U2 whole entry, looked up): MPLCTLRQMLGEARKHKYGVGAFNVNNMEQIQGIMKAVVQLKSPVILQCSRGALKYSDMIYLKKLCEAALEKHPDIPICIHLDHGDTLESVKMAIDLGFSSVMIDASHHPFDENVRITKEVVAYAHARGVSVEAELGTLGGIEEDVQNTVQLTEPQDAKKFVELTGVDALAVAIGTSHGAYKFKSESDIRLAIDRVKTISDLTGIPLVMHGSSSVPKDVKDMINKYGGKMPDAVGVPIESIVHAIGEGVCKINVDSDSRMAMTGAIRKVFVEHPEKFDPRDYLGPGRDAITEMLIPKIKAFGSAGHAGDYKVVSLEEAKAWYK
# Assay: qHTS Assay for Inhibitors of Fructose-1,6-bisphosphate Aldolase from Giardia Lamblia; further: nearly all actives have a fitted effect of over 55% in size
# Conditions: purified Giardia FBPA; activity, negative = inhibition: at 59.6 µM (top of the series) unless noted
# Summary of the method: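 40 nM FBPA preincubated 10 min at RT with compound (up to 57.5 uM final), then substrate plus GAPDH/TPI/NAD/arsenate coupling and diaphorase/resazurin added. Fluorescence read after 20 min at RT, 525/598 nm.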
# On the % scale 0 is the no-effect control and ±100 the full control effect; potency means the concentration at half of the fitted maximal effect; tags describe the fitted curve by direction and shape.
SMILES,Potency,"activity, negative = inhibition"
Cc1cccc(N2C(=O)CC(Sc3ncn[nH]3)C2=O)c1 (stereo not drawn),active: 19.9 µM,
CC1N(C)c2cccc3cccc(c23)N1C,"inconclusive: 15.8 µM [inhibitor, partial curve]",
COc1ccccc1N1CCN(CC(=O)Nc2nc(C)c(C(=O)N(C)C)s2)CC1,active: 11.2 µM,
CC(C)(C)c1cc(=O)n(-c2ccccc2)[nH]1,active: 0.63 µM,
COc1ccc(CN2CCN(C(=O)CC(C)C)CC2)c2ccccc12,"inconclusive: 19.9 µM [inhibitor, single point]",
O=C(NC(=S)Nc1nc2ccc(F)cc2s1)c1ccco1,"inconclusive: 7.06 µM [inhibitor, partial curve]",
Cc1ccc2oc(=O)c(/C=C(\O)c3ccccc3)nc2c1,"inconclusive: 25.1 µM [inhibitor, partial curve]",
CCCOC(=O)c1ccc(OCC(O)CN2CCN(C(=O)c3ccccc3)CC2)cc1 (stereo not drawn),,inactive: -2.35%
CCOc1ccc(CCNC(=O)Cc2nn[nH]n2)cc1OCC,"inconclusive: 15.8 µM [inhibitor, partial curve]",
COC(CNC(=O)c1ccc2c3c(onc13)-c1ccccc1C2=O)OC,"inconclusive: 0.354 µM [inhibitor, full curve]",
Cc1cccc(N2CSC3=C(C#N)C(c4ccc(C)o4)CC(=O)N3C2)c1 (stereo not drawn),"inconclusive: 7.06 µM [inhibitor, partial curve]",
Cn1c(O)c(C(c2ccccn2)c2c(O)n(C)c(=S)[nH]c2=O)c(=O)[nH]c1=S,active: 17.7 µM,
Cc1ccc(C2=Nc3ccccc3SC(c3cccc([N+](=O)[O-])c3)C2)cc1 (stereo not drawn),"inconclusive: 15.8 µM [inhibitor, partial curve]",
COc1ccc(C(=O)NC(=S)NNC(=O)c2cnccn2)cc1OC,,inactive: 20.9%
CCNC(=S)NS(=O)(=O)c1ccc(F)cc1,"inconclusive: 2.23 µM [inhibitor, partial curve]",
CC(NC(=O)[C@H](NC(=O)[C@@H]1Cc2ccccc2CN1)c1ccccc1)c1ccccc1 (stereo partly drawn),"inconclusive: 28.2 µM [inhibitor, single point]",
Cc1cc(C)cc(NC(=O)C2CCCN(S(=O)(=O)c3c(C)noc3C)C2)c1 (stereo not drawn),"inconclusive: 7.08 µM [activator, single point]",
Cc1nn2c(-c3ccccc3)nnc2c2ccccc12,,inactive: 7.37%
OCCCNC(=S)Nc1ccc2nc(-c3ccccn3)c(-c3ccccn3)nc2c1,"inconclusive: 7.92 µM [inhibitor, partial curve]",
Cc1ccc(S(=O)(=O)Nc2cc(-c3ccccc3)nn2C)cc1,"inconclusive: 14.1 µM [activator, partial curve]",
C=CCn1sc(=N)c(C#N)c1N,"inconclusive: 7.06 µM [inhibitor, partial curve]",
CCCCNC(=S)N1CCN(C)CC1,"inconclusive: 17.7 µM [inhibitor, partial curve]",
Cc1nnc(SCCn2c(N3CCC(Cc4ccccc4)CC3)nc3c2c(=O)[nH]c(=O)n3C)s1,,inactive: 1.5%
O=C(O)C(=O)Cc1c[nH]c2ccccc12,"inconclusive: 15.8 µM [inhibitor, partial curve]",
O=C(N/N=C/c1cc([N+](=O)[O-])ccc1N1CCCCCC1)c1ccccn1,"inconclusive: 9.98 µM [inhibitor, partial curve]",

SMILES,Potency,"activity, negative = inhibition"
COc1cc(CNCc2cc(OC)c(OC)c(OC)c2)cc(OC)c1,"inconclusive: 14.1 µM [inhibitor, partial curve]",
COC(=O)c1sccc1NC(=O)c1cc2c(s1)CCCC2,,inactive: -7.29%
COc1ccc(/C=C/C(=O)NC(=S)NNC(=O)c2ccco2)cc1,"inconclusive: 25.1 µM [activator, single point]",
Cc1ccc(NC(=O)CSc2nnc(-c3ccco3)c(-c3ccco3)n2)cc1,"inconclusive: 7.06 µM [inhibitor, partial curve]",
CCOc1cc(/C=C2\SC(N)=NC2=O)ccc1O,active: 7.94 µM,
COc1nc(N(c2ccccc2)c2ccccc2)nc(-n2ccnc2)n1,"inconclusive: 22.3 µM [activator, single point]",
CCOC(=O)Cn1nc(-c2ccccc2)c(-c2ccccc2)nc1=O,,inactive: 2.92%
CCOc1ccc(/C=N/Nc2nc(=O)[nH]nc2C)cc1OC,active: 19.9 µM,
COC/C=C/C1=CC2=CC(=O)C(C)(OC(=O)c3cnc4ccccc4n3)C(=O)C2=CN1CC(C)C (stereo not drawn),"inconclusive: 1.77 µM [inhibitor, partial curve]",
COc1cc(C2C(C(C)=O)=C(C)Nc3ncnn32)ccc1O (stereo not drawn),,inactive: -0.23%
O=C1/C(=C\c2ccco2)SC(=S)N1C1CCCCC1,,inactive: -6.03%
CCCC[n+]1ccn(C2=C([O-])c3ccccc3C(=O)/C2=N\S(=O)(=O)c2ccc(Cl)cc2)c1,"inconclusive: 0.316 µM [inhibitor, full curve]",
CCOc1ccc2[nH]c(=O)c(CN(Cc3nnnn3Cc3ccco3)C3CCCCC3)cc2c1,"inconclusive: 17.7 µM [inhibitor, partial curve]",
COc1ccc(/C=N/NC(=O)c2ccc(Br)cc2)c(OC)c1,,inactive: -6.23%
Cc1nn(-c2ccccn2)c2c1-c1nc(N3CCOCC3)ncc1CC2,"inconclusive: 9.98 µM [inhibitor, partial curve]",
CC(C)=NNc1nc(-c2ccc(N3C(=O)CCC3=O)cc2)cs1,"inconclusive: 17.7 µM [inhibitor, single point]",
CC(C)(C)c1cc(Cl)ccc1OCCOCCN1CCCC1,"inconclusive: 39.8 µM [activator, partial curve]",
COC(=O)c1c(NC(=O)CN2CCC3(O)CCCCC3C2c2ccc(F)cc2)sc(C)c1C (stereo not drawn),,inactive: -5.2%
O=[N+]([O-])c1ccccc1/C=N/n1c(C(F)(F)F)n[nH]c1=S,active: 17.7 µM,
CCc1nc(Nc2ccc(F)cc2)c2oc3ccccc3c2n1,"inconclusive: 35.5 µM [inhibitor, single point]",
CCOC(=O)N1CCC(N2CCN(S(=O)(=O)c3ccc([N+](=O)[O-])cc3)CC2)CC1,"inconclusive: 7.06 µM [inhibitor, partial curve]",
CC(C)c1ccc(S(=O)(=O)/N=C2/C=CC(=O)c3ccccc32)cc1,active: 14.1 µM,
Cc1cn2c(nc1=O)OC1C(O)C(COC(=O)c3ccccc3)OC12 (stereo not drawn),"inconclusive: 35.4 µM [activator, single point]",
CNC(=O)[C@]1(C(F)(F)F)C[C@H](CCc2ccccc2)CCCO1,"inconclusive: 44.6 µM [inhibitor, single point]",
CC(NCc1ccc(OCC(N)=O)cc1)C12CC3CC(CC(C3)C1)C2 (stereo not drawn),"inconclusive: 31.6 µM [inhibitor, partial curve]",

SMILES,Potency,"activity, negative = inhibition"
Cc1ccc(Cn2nnnc2CN2CCC(NC(=O)C(C)(C)C)CC2)cc1,"inconclusive: 15.8 µM [inhibitor, single point]",
CC(C)(C)OC(=O)NC(CC(=O)OCc1ccccc1)C(=O)O (stereo not drawn),,inactive: 3.15%
C=Cn1cc[n+](CC(=O)c2ccc(Br)cc2)c1,,inactive: 8.2%
O=[N+]([O-])c1ccc(Cl)c2c1C1C=CCC1C(c1ccccn1)N2 (stereo not drawn),"inconclusive: 17.7 µM [inhibitor, partial curve]",
COCc1cc(=O)n2c([nH]c3ccccc32)c1C#N,"inconclusive: 5.61 µM [inhibitor, partial curve]",
Cc1cc(C)cc(NC(=O)Cn2nnc(C(=O)NCc3ccc4c(c3)OCO4)c2N)c1,,inactive: 0.0632%
COc1cc2cnc(Cl)nc2cc1OC,"inconclusive: 12.6 µM [inhibitor, partial curve]",
CN(C)CCCOC(=O)c1cc2ccccc2o1,,inactive: -9.49%
Nc1cc(C(=O)c2cccs2)ccc1Cl,,inactive: 2.36%
Cc1cccc2nc(-c3ccco3)c(Nc3ccc4c(c3)OCO4)n12,,inactive: -5.38%
CCOC(=O)N1CCN(S(=O)(=O)c2ccc(C(=O)NNc3nc4c(C)cc(C)cc4s3)cc2)CC1,"inconclusive: 17.7 µM [inhibitor, partial curve]",
Cc1ccccc1CN1CCN(S(=O)(=O)c2ccc(F)cc2)CC1,"inconclusive: 17.7 µM [inhibitor, partial curve]",
NS(=O)(=O)c1ccc(NC(=S)NC(=O)c2ccco2)cc1,"inconclusive: 17.7 µM [inhibitor, single point]",
CCSc1nnc(NC(=O)c2nc3nc(C)cc(C)n3n2)s1,"inconclusive: 17.7 µM [inhibitor, partial curve]",
CC(C)CNC(=O)c1c(N)n(Cc2ccc3c(c2)OCO3)c2nc3ccccc3nc12,"inconclusive: 3.15 µM [inhibitor, full curve]",
CCN1CCN(C(=S)c2ccc(Cl)c(Cl)c2)CC1,"inconclusive: 19.9 µM [inhibitor, single point]",
N#Cc1cccc(-c2nc3cnc(N4CCOCC4)nc3n(C[C@H]3CCCO3)c2=O)c1,,inactive: 1.73%
COc1ccc(OC)c(CN2CCCCCC2)c1,"inconclusive: 15.8 µM [inhibitor, partial curve]",
COc1ccc(-c2csc(Nc3ccc(C)cn3)n2)cc1,"inconclusive: 31.5 µM [inhibitor, single point]",
CCNc1nc(NC(C)C)nc(ON=C(C)C)n1,,inactive: -0.951%
CCc1cccc(CC)c1NC(=O)CN1CCc2cc(OC)c(OC)cc2C1,"inconclusive: 15.8 µM [inhibitor, partial curve]",
O=C(CCl)Nc1cccc(-c2cnc3ccccc3n2)c1,"inconclusive: 22.3 µM [inhibitor, single point]",
c1ccc(N2CCN(C3CC4CCC3C4)CC2)cc1 (stereo not drawn),"inconclusive: 25.1 µM [inhibitor, single point]",
